# Reference: the supplement of paper PMC6609913
# Counter-ions that a name gives are not always drawn. ± gives the standard deviation of the averaged measurements. In all, about 1,300 compounds were measured (“normalised cell viability”: median about 1, lowest 2% from about 0.14 on). Some of the results follow.
# System: V-C8 (BRCA2-deficient hamster cells)
# Assay: normalised cell viability (fraction of plate median); higher = more viable cells (less toxic)
# Conditions: 5 µM
# Method in brief: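 Library drugs, held as 10 mM stocks in DMSO, were diluted to 5 μM in 100 μl medium and added to 96-well plates of V-C8 hamster cells, either lacking BRCA2 or with BRCA2 restored, 24 h after seeding. Plates ran for 3 days (screen 1) or 6 days (screen 2), alongside solvent-only wells. Viability came from a resazurin readout, median-plate normalised, as the mean of triplicate wells.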
SMILES,normalised cell viability (treatment time: 3 days),normalised cell viability (treatment time: 6 days)
CC1(C)NC(=O)N(c2ccc([N+](=O)[O-])c(C(F)(F)F)c2)C1=O [Nilutamide],1.01 ± 0.013,0.938 ± 0.044
CCC1=C(C)CN(C(=O)NCCc2ccc(S(=O)(=O)NC(=O)N[C@H]3CC[C@H](C)CC3)cc2)C1=O [Glimepiride],1.01 ± 0.029,1.12 ± 0.042
O=C1CCc2cc(OCCCCc3nnnn3C3CCCCC3)ccc2N1 [Cilostazol],1.09 ± 0.1,0.932 ± 0.094
CCS(=O)(=O)CCn1c([N+](=O)[O-])cnc1C [Tinidazole],1.04 ± 0.027,1.21 ± 0.24
CCCCOc1cc(C(=O)NCCN(CC)CC)c2ccccc2n1 [Dibucaine],0.963 ± 0.036,0.967 ± 0.065
O=P(O)(O)C(Cl)(Cl)P(=O)(O)O [Clodronate],1.04 ± 0.026,1.07 ± 0.051
Cc1nc2n(c(=O)c1CCN1CCC(c3noc4cc(F)ccc34)CC1)CCCC2 [Risperidone],1.06 ± 0.018,1.08 ± 0.076
CNCCC(Oc1ccc(C(F)(F)F)cc1)c1ccccc1 (centres undefined) [Fluoxetine hydrochloride],0.7923 ± 0.0074,0.752 ± 0.042
CC(=O)Nc1ccc(CC(=O)O)cc1 [Actarit],1.05 ± 0.015,1.03 ± 0.038
OCc1cc(C(O)CNCCCCCCOCCCCc2ccccc2)ccc1O (centres undefined) [Salmeterol],0.916 ± 0.079,0.879 ± 0.047
O=C(O)Cc1sc(-c2ccccc2)nc1-c1ccc(Cl)cc1 [Fentiazac],0.978 ± 0.05,1 ± 0.031
CC(=O)OCC(=O)[C@@]12N=C(C)O[C@@H]1C[C@H]1[C@@H]3CCC4=CC(=O)C=C[C@]4(C)[C@H]3[C@@H](O)C[C@@]12C [Deflazacort],0.984 ± 0.029,1 ± 0.029
CCN1CC(CCN2CCOCC2)C(c2ccccc2)(c2ccccc2)C1=O (centres undefined) [Doxapram hydrochloride],0.925 ± 0.022,1.04 ± 0.089
CC(=O)[C@H]1CC[C@H]2[C@@H]3C[C@H](C)C4=CC(=O)CC[C@]4(C)[C@H]3[C@@H](O)C[C@]12C [Medrysone],1.09 ± 0.13,1.01 ± 0.012
CCOC(=O)OC(C)OC1=C(C(=O)Nc2ccccn2)N(C)S(=O)(=O)c2ccccc21 (centres undefined) [Ampiroxicam],1.03 ± 0.055,1.02 ± 0.041
CCCCNC(=O)NS(=O)(=O)c1ccc(C)cc1 [Tolbutamide],0.977 ± 0.068,0.973 ± 0.035
O=C(O)c1cc(-c2ccc(F)cc2F)ccc1O [Diflunisal],1.04 ± 0.037,0.997 ± 0.043
